Laboratory results published in the supplement of paper PMC10126150.
Sequences with one replicate were seen in a single cluster, so their values are uncertain.

System: ATP
Assay: switch fluorescence ratio, 500 uM ATP over buffer (Cy3 cluster intensity, sum of 5 cycles each) (fold (ratio)); higher = stronger signal-on switching upon ATP binding; sequences stand for … in TCGTCGGCAGCGTCAGATGTGTATAAGAGACAGTTTTTTTTTTTTTTTTTTTTTTTTT…TC
Settings: aptamer strand: ATP DNA aptamer (quencher-CACCTGGGGGAGTATTGCGGAGGAAGG + anchor), 100 nM annealed; ATP concentration: 500 uM; one replicate
Procedure, shortened: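 Five buffer/ATP imaging cycles were run on Cy3-labelled switching-strand clusters on a modified Illumina MiSeq flow-cell, with NaOH stripping and re-annealing between cycles. In each cycle, clusters annealed to 100 nM quencher-labelled ATP aptamer were imaged in selection buffer, then after 15 min with 500 uM ATP at 22 °C. Per cluster, the fluorescence ratio is summed target-cycle over summed buffer-cycle Cy3 intensity, averaged per switch-domain sequence. Only clusters within 100-1000 RFU were kept.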
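Also: ATP exposure 15 min at 22 °C before imaging.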

Sequence	switch fluorescence ratio
CTACGGTTAA	1.08
CTACGTAGGG	1.04
CTACTCCCGG	1.53
CTACTCGCTC	1.17
CTACTCGTCG	0.998
CTAGAAAACG	1.06
CTAGAAGGCT	0.984
CTAGAAGTTA	0.994
CTAGACCCG	1.01
CTAGAGGTTT	0.977
CTAGATCCTG	1
CTAGCAAGTA	0.979
CTAGCAGCAT	1.28
CTAGCCTAGA	1
CTAGCTGGGG	0.987
CTAGCTGTTG	1
CTAGCTGTTT	1.02
CTAGGAAGG	1.06
CTAGGAATTT	0.97
CTAGGACAGT	1.03
CTAGGAGATT	1
CTAGGATCCT	0.973
CTAGGCACTG	1.06
CTAGGCGAGT	1.02
CTAGGTCGGG	0.955

Sequence	switch fluorescence ratio
CTAGGTGCGT	1.07
CTAGTATCTG	0.958
CTAGTGCCGA	0.942
CTAGTGCGTA	1.01
CTAGTGTTGT	0.958
CTAGTTATGC	1.02
CTATACGACC	2.53
CTATACTCGC	1.28
CTATATCTGG	0.977
CTATATTATG	1.02
CTATATTGGT	1.03
CTATCCGTCG	1.09
CTATCGGTGC	1.04
CTATCGTA	1.01
CTATCTCCTG	1.01
CTATGACCCA	1.04
CTATGAGACG	1.06
CTATGGGGAA	0.988
CTATGGTCGC	0.973
CTATGGTCTA	1.02
CTATGGTG	1.04
CTATGTCGCT	0.923
CTATGTGCGG	1.01
CTATTAAATT	0.999
CTATTGTATG	0.978

Sequence	switch fluorescence ratio
CTATTTCAAA	0.967
CTATTTCAGC	0.986
CTATTTTAAA	0.987
CTATTTTTG	1.03
CTCAAAGGTG	1.26
CTCAAATAGT	1.02
CTCAACCTTT	1.04
CTCAACGAAC	1.3
CTCAACTGGG	1.18
CTCAAGTAGG	1.02
CTCACAGGAT	1.06
CTCACGGTGT	1.27
CTCACTCATG	1.02
CTCACTTTGG	1
CTCAGAGATG	1.01
CTCAGATGTG	0.966
CTCAGCTTCC	1.54
CTCAGGAGTT	1.04
CTCAGGCTCC	1.21
CTCAGTACCT	1.21
CTCAGTAGGT	0.977
CTCATACTAT	1.03
CTCATAGAGC	0.971
CTCATATG	1
CTCATCAATG	1.02

Sequence	switch fluorescence ratio
CTCATCTGCT	1.04
CTCATGCAGT	1.6
CTCATGGAGG	0.986
CTCATTACGC	1.05
CTCATTAGTA	1.01
CTCCAAAGCA	2.53
CTCCAACCTC	1.4
CTCCACATAG	3.56
CTCCAGGAGC	1.22
CTCCCAACGG	1.3
CTCCCACATG	3.29
CTCCCAGTGT	5.19
CTCCCATCGT	1.08
CTCCCCCACT	2.42
CTCCCCTCTG	1.82
CTCCCGTTA	1.37
CTCCCTTTGT	1.02
CTCCGAAGAG	3.99
CTCCGGGGCT	1.8
CTCCGTCCAG	2.54
CTCCGTGGTG	2.01
CTCCTCGGAA	2.52
CTCCTGGGC	1.17
CTCCTGTAGT	1.07
CTCGAAAGTT	1

Sequence	switch fluorescence ratio
CTCGAATCTA	0.979
CTCGACGGCA	1.14
CTCGAGCGGA	0.993
CTCGAGTTAG	0.927
CTCGCCTAAA	1.04
CTCGCGAGTA	0.956
CTCGCTCCCG	1.08
CTCGCTCGAA	1.08
CTCGGAAGGA	1.01
CTCGGACCCC	1.08
CTCGGACGTG	0.993
CTCGGATCCG	1.12
CTCGGATGAG	0.939
CTCGGCACCG	1.01
CTCGGCCTGG	1.01
CTCGGCGATG	1.52
CTCGGGCGCG	0.984
CTCGGGCTAA	1.09
CTCGGGTCA	0.987
CTCGGTGCCA	0.965
CTCGTAATGG	1.72
CTCGTACTAT	1.06
CTCGTATAGC	1.03
CTCGTATGGG	1.03
CTCTAAGTAT	1.04

Sequence	switch fluorescence ratio
CTCTAATGGG	0.96
CTCTACAGGC	1.27
CTCTATGGAT	1.01
CTCTCCAGCT	1.57
CTCTCCTAGT	1.1
CTCTCTCGGA	1
CTCTGATAAA	1.04
CTCTGCGTGA	1.6
CTCTGGGTAA	1.21
CTCTGGTTGC	1.16
CTCTTCATGA	1
CTCTTCCCAA	2.43
CTCTTCTTAA	1.03
CTCTTTGCGG	0.997
CTCTTTTATT	0.985
CTGAAAAACT	0.998
CTGAATCTGT	0.979
CTGACCCCCA	1.65
CTGACTTATT	1.07
CTGACTTTTA	1.08
CTGAGAGAAG	0.971
CTGAGAGTGA	1.01
CTGAGATGCT	1.01
CTGAGCCACT	1.04
CTGAGCTTTG	1

Sequence	switch fluorescence ratio
CTGAGGGAGT	0.979
CTGAGTGCAA	2.58
CTGATAGAGC	0.992
CTGATAGCTG	1.14
CTGATAGGCG	1.04
CTGATCCGAC	1.51
CTGATGAGGG	0.941
CTGATTATGG	0.967
CTGATTCTTA	0.992
CTGATTGAGA	0.991
CTGATTGAGG	0.975
CTGATTTATA	0.992
CTGCAAAGGG	1.16
CTGCAGA	0.977
CTGCAGAAGT	1.01
CTGCAGCTCG	1.17
CTGCAGGCTG	1.01
CTGCATCGGG	1.03
CTGCATGGCG	1.08
CTGCCCAGGA	1.39
CTGCCCCGGT	1.92
CTGCCCGGAT	1.02
CTGCGAGGCG	1.03
CTGCGATTAA	1.08
CTGCGCATGG	3.42

Sequence	switch fluorescence ratio
CTGCGGGGGC	1.06
CTGCGTACAC	1.92
CTGCGTCGGG	1.03
CTGCTAAATA	1.08
CTGCTATCAA	1.01
CTGCTGGCTT	1.06
CTGGAAACCG	1.18
CTGGAACGAG	1
CTGGAACTAA	0.995
CTGGAGCGAA	3.68
CTGGAGTGAC	2.28
CTGGATCCAC	1.03
CTGGATCGAG	1.01
CTGGATCTGG	1.04
CTGGATCTTG	0.974
CTGGATGGGC	0.983
CTGGCAGCTG	0.978
CTGGGCATGG	1.04
CTGGGCTGC	1.04
CTGGGGATAT	0.996
CTGGGGCCAT	1.06
CTGGGGGAGG	1.06
CTGGGGGCAT	1.06
CTGGGGGGAC	1.62
CTGGGTACGA	1.07
